Assay results taken from PubChem BioAssay AID540317 (National Center for Advancing Translational Sciences (NCATS), 2011).
Among all 390,000 compounds or so, about 2,200 (0.56%) were called active. The inconclusive results got no clear call from the source; some entries with a clear call stand among them for comparison. The call rests on the fitted dose curve; in most records, active means well fitted inhibition curve with a large enough effect; inconclusive means small, poorly fitted or top-dose-only effect; inactive means no such curve, though single readings can be large or run the other way. Potencies of inconclusive entries are doubtful fits and often do not repeat.
Further: nearly all actives have a fitted effect of over 70% in size.
Potency means the concentration at half of the fitted maximal effect; tags describe the fitted curve by direction and shape.

These compounds were tested against Chromobox protein homolog 1 (Homo sapiens) (UniProt P83916) (assay: HTS for Inhibitors of HP1-beta Chromodomain Interactions with Methylated Histone Tails). Settings: AlphaScreen HP1-beta / biotin-H3K9me3 peptide binding; series mostly up to 114 µM; activity change, negative = inhibition: at the top concentration.
UniProt P83916, sequence (P83916 whole entry, looked up): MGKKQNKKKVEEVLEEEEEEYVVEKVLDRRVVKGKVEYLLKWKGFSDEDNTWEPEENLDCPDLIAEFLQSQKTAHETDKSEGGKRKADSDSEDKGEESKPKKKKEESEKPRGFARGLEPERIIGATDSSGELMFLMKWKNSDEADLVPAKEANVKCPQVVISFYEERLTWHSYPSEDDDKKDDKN
Outline: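 AlphaScreen: HP1-beta (50 nM) preformed 30 min with biotin-H3(1-18)K9me3 peptide (50 nM) in PBS pH 7.4, 0.01% Tween-20. Compound added for 30 min at RT, then streptavidin donor/nickel chelate acceptor beads (10 ug/mL) for 30 min.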
`COc1ccc(OC)c(NC(=S)NCCC(c2ccccc2)c2ccccc2)c1` was tested, and the Potency was inconclusive: 22.4 µM [inhibitor, partial curve, poor fit]. For `Cc1cccc(OCC(=O)N(C)CCc2ccccn2)c1`, the Potency was inconclusive: 79.4 µM [inhibitor, partial curve, poor fit]. `Cc1ccc(NC(=O)COC(=O)CCC(=O)c2ccc(C(C)(C)C)cc2)c([N+](=O)[O-])c1` was tested, and the Potency was inconclusive: 5.62 µM [inhibitor, full curve]. `CC1CC=CC2C1C(=O)N(Cc1ccccc1)C2c1ccc(F)c(-c2ccc(N(C)C)cc2)c1` (stereo unspecified) was tested, and the Potency was inconclusive: 11.2 µM [inhibitor, full curve, poor fit]. With `c1ccn(CCc2ccncc2)c1` the Potency was inconclusive: 89.1 µM [inhibitor, partial curve, poor fit]. `CC(C)OCCCn1c(SC(C)C(=O)NC2CC2)nc2ccccc2c1=O` (stereo unspecified) was tested, and the “activity change, negative = inhibition” value was inactive: 15.9%. For `Cn1nc(C(=O)NCc2ccc(F)cc2)c2c1-c1ccccc1SC2`, the Potency was inconclusive: 22.4 µM [inhibitor, full curve]. `Cc1ccoc1C(=O)NCCCNC(=O)c1occc1C` was tested, and the Potency was inconclusive: 39.8 µM [inhibitor, single point]. With `Cc1cc(C(=O)CSc2nc3ccccc3[nH]2)c(C)n1C` the Potency was inconclusive: 8.91 µM [inhibitor, partial curve]. For `O=C1CN(C(=O)c2ccc(Br)o2)C(c2ccccc2)c2cc(Cl)ccc2N1` (stereo unspecified), the “activity change, negative = inhibition” value was inactive: -4.83%. `CSc1ccc(-c2nc3c(C)cccn3c2Nc2ccc3c(c2)OCCO3)cc1` was tested, and the Potency was inconclusive: 20 µM [inhibitor, full curve, poor fit]. For `CC(C)(C)C1CCC(=O)N(CCC#N)CC1` (stereo unspecified), the “activity change, negative = inhibition” value was inactive: 58.2%. `CC1CCN(c2ccccc2N)CC1` was tested, and the Potency was inconclusive: 25.1 µM [inhibitor, single point]. `COc1cc(NC2=Nc3cccc4cccc2c34)cc(OC)c1OC` was tested, and the Potency was inconclusive: 7.08 µM [inhibitor, full curve, poor fit]. In the case of `O=C(NCc1ccco1)C1CCN(Cc2ccc(F)cc2)CC1`, the Potency is reported as inconclusive: 70.8 µM [inhibitor, single point]. In the case of `O=[N+]([O-])c1cccc(CN2CCN(c3ncccn3)CC2)c1`, the Potency is reported as inconclusive: 56.2 µM [inhibitor, single point]. `Cc1ccc(CN2CCSCC2)c(C)c1` was tested, and the Potency was inconclusive: 22.4 µM [inhibitor, full curve]. `CCc1nn(-c2ccccc2)c2nc(-c3ccc(O)cc3)c3cc(OC)c(OC)cc3c12` was tested, and the “activity change, negative = inhibition” value was inactive: 31.4%. `COc1ccc(-c2csc(NNC3=NCCCCC3)n2)cc1` was tested, and the Potency was inconclusive: 8.91 µM [inhibitor, full curve]. With `CC(=O)Nc1nc(C)c(-c2csc(Nc3ccc(O)cc3)n2)s1` the Potency was inconclusive: 25.1 µM [inhibitor, full curve]. `O=C(COC(=O)CCN1C(=O)/C(=C\C=C\c2ccccc2)SC1=S)Nc1cc(F)ccc1F` was tested, and the Potency was inconclusive: 12.6 µM [inhibitor, full curve]. `Cc1cc(S(=O)(=O)N2CCN(c3ccc(F)cc3)CC2)ccc1-n1cnnn1` was tested, and the Potency was inconclusive: 89.1 µM [inhibitor, single point]. For `CCOc1ccc(NC(=O)CN(C)C(=O)c2ccc3[nH]c4c(c3c2)CC(C)CC4)cc1OCC` (stereo unspecified), the Potency was inconclusive: 44.7 µM [inhibitor, partial curve]. `COc1ccccc1CN1CC(C(=O)N2CCC(C(=O)c3ccccc3)CC2)CCC1=O` (stereo unspecified) was tested, and the “activity change, negative = inhibition” value was inactive: 48%. `N#Cc1nc(COc2ccc(F)cc2)oc1N1CCN(Cc2ccccc2)CC1` was tested, and the Potency was inconclusive: 8.91 µM [inhibitor, full curve, poor fit]. In the case of `O=C(CCCc1ccccc1)Nc1ccccc1[N+](=O)[O-]`, the Potency is reported as inconclusive: 39.8 µM [inhibitor, partial curve]. In the case of `COc1ccccc1Nc1ncc(-c2cccs2)s1`, the Potency is reported as inconclusive: 35.5 µM [inhibitor, partial curve]. With `COCC(C)N=C1NN=C(c2cc(C)n(Cc3ccccc3Cl)c2C)CS1` (stereo unspecified) the Potency was inconclusive: 39.8 µM [inhibitor, partial curve]. With `CC(NCCc1ccc(S(N)(=O)=O)cc1)C(=O)NCCc1ccc(F)cc1` (stereo unspecified) the Potency was inconclusive: 31.6 µM [inhibitor, partial curve]. In the case of `O=c1ccsn1Cc1ccccc1`, the Potency is reported as inconclusive: 56.2 µM [inhibitor, partial curve, poor fit]. For `CCOC(=O)C1CCN(Cc2ccc3ccccc3c2)CC1`, the Potency was inconclusive: 44.7 µM [inhibitor, partial curve, poor fit]. For `CCN(CC)CCC(c1ccc(N(C)C)cc1)c1c(OC)cc(OC)c2c(-c3ccccc3)cc(=O)oc12` (stereo unspecified), the Potency was inconclusive: 22.4 µM [inhibitor, full curve]. `CCOc1ccc(CCNC(=O)CN2C(=O)NC3(CCCCC3C)C2=O)cc1OCC` (stereo unspecified) was tested, and the Potency was inconclusive: 89.1 µM [inhibitor, single point]. In the case of `CCN(CC)c1ccc(NC(=O)c2sc3ccccc3c2Cl)cc1`, the Potency is reported as inconclusive: 10 µM [inhibitor, full curve]. With `O=C(N/N=C/c1cc(Cl)cc([N+](=O)[O-])c1O)C(O)(c1ccccc1)c1ccccc1` the Potency was inconclusive: 44.7 µM [inhibitor, partial curve]. For `COc1ccccc1CNC(=O)C(NS(=O)(=O)c1ccc2c(c1)OCCO2)C(C)C` (stereo unspecified), the Potency was inconclusive: 39.8 µM [inhibitor, single point]. With `O=C(/C=C/c1ccc(Cl)cc1)N1CCN(c2c(Cl)cccc2[N+](=O)[O-])CC1` the Potency was inconclusive: 50.1 µM [inhibitor, partial curve]. With `Cc1ccc(C2CC(c3cccs3)=NN2C(=O)CCl)cc1` (stereo unspecified) the “activity change, negative = inhibition” value was inactive: 16.9% [at 57 µM]. With `CN1CCN(C2=C(Cl)C(=O)C(c3cnc(N4CCCCC4)s3)=C(Cl)C2=O)CC1` the Potency was inconclusive: 12.6 µM [inhibitor, partial curve, poor fit]. With `COc1ccc(CN2c3c(Br)cccc3C(=O)CS2(=O)=O)cc1` the Potency was inconclusive: 89.1 µM [inhibitor, single point]. `CCCOc1ccccc1NC(=O)CC1Nc2ccccc2NC1=O` (stereo unspecified) was tested, and the “activity change, negative = inhibition” value was inactive: -0.482%.
